Test results reported in the supplement of paper PMC11417369.
± gives the standard deviation of the averaged measurements. The list shows a part of the results.

System: PfAP2-LT AP2 domain (GST-tagged)
Experiment: gcPBM binding intensity (ln(normalized median fluorescence intensity)); higher = stronger DNA binding
How it was run: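 DNA-binding domains from P. falciparum, fused to GST and produced in E. coli, were put on an Agilent 4 × 180k double-stranded probe array for 1 h in 1× PBS holding 1% milk, 0.2 mg/ml BSA, 0.5% salmon testes DNA and 0.03% Triton X-100. Probes were primer-extended, 36 bp long and drawn from intergenic genomic regions, with negative controls included. After Alexa488 anti-GST antibody detection and a 488 nm scan, binding intensity was set as the highest Masliner-normalised natural-log median intensity across replicate spots of either probe orientation.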

Row | Sequence | gcPBM binding intensity (ln)
1 | AATGAATCCTTATATACACACATTATTATAGTATAG [CACACA_site7454] | 8.93 ± 0.35
2 | ATTTATATATATTTATGTACGTATTAATTTTTTTTT [XGTACX_site3877] | 8.93 ± 0.44
3 | TCTTTATCCTTTCTCTTTTTATTAATTATAATATTC [TGCATGCA_negctrl_site584] | 8.74 ± 0.4
4 | ATTATTTGTAATATAACACACACAAAAAAAGACTCG [CACACA_site8487] | 9.28 ± 0.32
5 | ATTAATTATGTATTTCAACAAAGAAGTGTTATATAT [GTGCAC_negctrl_site215] | 8.55 ± 0.42
6 | ATTATACCGTATTTTGCATGTAGTATTTTCATTTTA [TGCATGCA_site1021] | 9.07 ± 0.41
7 | AAATGTACAGGACGCACACACATATATATATATATA [CACACA_site3674] | 10.11 ± 0.05
8 | AAGGAAAATATTAACTGTACATATAAAATATATATA [XGTACX_site5310] | 8.64 ± 0.47
9 | ATATATACCTAAGACACACACATATATATATATATA [CACACA_site764] | 10.06 ± 0.05
10 | TATCATTTATATATGTGTACTTATTTATTTATTTAT [XGTACX_site7961] | 8.94 ± 0.47
11 | AAATGAATTTAACAATGTACACATATATTATAAATA [XGTACX_site1449] | 8.71 ± 0.44
12 | TAAGTCAAAACTTTTTTTTCTAAATTTCCATAATTA [GTGCAC_negctrl_site29] | 8.03 ± 0.55
13 | ATATACATTCTATATACATGCATACTTCATTTTGTG [TGCATGCA_site966] | 9.12 ± 0.49
14 | ATATATATATGTATATGTACTCATTCTTCTGTGTTT [XGTACX_site5014] | 9.28 ± 0.26
15 | AAAACGATTTTTTGCACACACATAATAAGCAGAACA [CACACA_site3871] | 9.37 ± 0.36
16 | TACATAATAATAAGGCGTACATAAAAATTAAAAATT [XGTACX_site8769] | 8.91 ± 0.45
17 | ATAAAACAAAGACACACACACATACACAAAAAAAAA [CACACA_site7752] | 9.99 ± 0.42
18 | TATCTACTTAAATAAAATAAAAATAATAAATAAAAA [TGCATGCA_negctrl_site312] | 8.32 ± 0.56
19 | AATAATCATGATCATAGTACGTATGAATACAAAAAA [XGTACX_site265] | 9.01 ± 0.41
20 | ATGTATAATATTTTCACACACAAGAAAAAAGAAAAG [CACACA_site3591] | 9.27 ± 0.36
21 | CGTATGTATATATATATACACACTTCTGTGATACGA [CACACA_site1949] | 9.03 ± 0.27
22 | TTTTATTTATTCCTACTTTTTTATTTATTTATTTAA [XGTACX_negctrl_site415] | 8.65 ± 0.51
23 | ACATTATGTCATAAATGTACACATACATATACATAC [XGTACX_site8998] | 8.93 ± 0.3

Row | Sequence | gcPBM binding intensity (ln)
24 | TATTTCACTTTTTGTCTGCACTAAAATTTTATGGTA | 8.81 ± 0.51
25 | GGTATATAAAAATATTGTACTTAAAAAAATATGTAT [XGTACX_site6253] | 8.57 ± 0.41
26 | TAGATACATAAACACACACACACATACATATATACA [CACACA_site9139] | 10.2 ± 0.23
27 | TTTTGACTAATATAATATGTTAAGAATTAATAAATA [XGTACX_negctrl_site35] | 8.05 ± 0.58
28 | AAAAAAAAAAAAAACACACACATATATATAATATAT [CACACA_site3172] | 9.37 ± 0.41
29 | AAGTATAGTCTTACATATATATATATATATATATAT [GTGCAC_negctrl_site280] | 9.79 ± 0.26
30 | CAAAAAGATAAGGTGTGTACGTATTATAATTTTAAA [XGTACX_site531] | 8.97 ± 0.58
31 | ATTTAATTTTCCAAATGTACTTATATTTTTATGAAA [XGTACX_site6144] | 8.27 ± 0.4
32 | TGAAATGATCTTTAGTTGCACTTAAAAATATATATA | 8.39 ± 0.35
33 | CAGTTTAATTTACATAGTACATAATATTTTAATTTT [XGTACX_site1793] | 8.54 ± 0.56
34 | GTAATATTAATATAATGTACAAAATGAAACATATAT [XGTACX_site6219] | 8.97 ± 0.43
35 | ACAATATTATTATTTAACCATACACAATTATATGTC [XGTACX_negctrl_site378] | 8.82 ± 0.34
36 | AGTATACTCAAACACACACACACAAAAAAAAAAAAA [CACACA_site4398] | 9.88 ± 0.58
37 | TAAGAAATAAATAGTACACACATAGACACCCACCGA [CACACA_site1516] | 9.71 ± 0.18
38 | TTTCGAAAAACAACAAGAAAAAAAAAAAAAAAAAAA [XGTACX_negctrl_site449] | 8.11 ± 0.64
39 | TTAAATATATGTAATACGCACACTTAATATTTTGAG [CACACA_site4170] | 8.81 ± 0.45
40 | AAAAAAAAAAAAAAAACATGCAATAAAGTGTGCGTA [TGCATGCA_site982] | 8.91 ± 0.38
41 | TTTTGGTGGGTTACAAGTACTCAAAATGGATTGTTA [XGTACX_site1951] | 8.56 ± 0.38
42 | TCACATACATTACTTACACACCATATTGATATATAC [CACACA_site6353] | 9.13 ± 0.36
43 | TGTATATATTATATTTGTACATATAAAACTATATGT [XGTACX_site4782] | 8.66 ± 0.34
44 | TATCTCATAGTATACACACACACACGCGCACATATA [CACACA_site6917] | 10.1 ± 0.3
45 | TTATTTTTTAAAAGTAGTACAAATTTTTATAGAAAA [XGTACX_site7407] | 7.93 ± 0.47
46 | ATTCCTTGGTTGTATAGTACTTTGGTTAAACATAAA [XGTACX_site6967] | 8.66 ± 0.45

Row | Sequence | gcPBM binding intensity (ln)
47 | CAATATTTGTTATGGGTGCAAACCGCATATATATAA [GTGCAC_site9543] | 8.79 ± 0.52
48 | ATTAAATCCGCACGCACACACACATATTAATAAAAA [CACACA_site3992] | 9.71 ± 0.33
49 | TAAAAAAGAAAATATATACACACCAAAAAAAAAAAA [CACACA_site3146] | 8.91 ± 0.43
50 | AAACAAAAAAATTGAAATAAAATGAAGTAAATGAAC [TGCATGCA_negctrl_site129] | 8.9 ± 0.66
51 | AATATTAAAGAATAATGTACAAAATAAAAGCAAAGA [XGTACX_site3550] | 9.1 ± 0.61
52 | ACATGTCTTAAAAGACGTACATATAAAAGAACCCTA [XGTACX_site8940] | 8.86 ± 0.47
53 | TATTAATTTCACCTTTCACATATGGAAAAAAAAAAA [CACACA_negctrl_site1243] | 8.21 ± 0.29
54 | AATGTGCACACGCGTACACACAAAAAAAGAAAAAAA [CACACA_site7031] | 9.44 ± 0.47
55 | TATTATTTGAGTAGTTGTACTCATTAATATATAAAA [XGTACX_site3468] | 8.23 ± 0.38
56 | ATTAACATTTTCGTATGTACATATATAATATATGTT [XGTACX_site7184] | 8.96 ± 0.38
57 | AATAAAAATAAAAATTGTACACTTTTTTAATATTTA [XGTACX_site892] | 8.34 ± 0.42
58 | ATGTTTATTTATTTATGTACTTATATATTTATATAT [XGTACX_site7924] | 9.04 ± 0.4
59 | TTTCCAAATACAACTACACACAAACAAAAATTATAT [CACACA_site4641] | 9.15 ± 0.39
60 | CAAAATATTTATATCACACATATAAATAAAAATAAA [CACACA_site6028] | 8.64 ± 0.52
61 | AAAAAAAAAAAACACACACACAAAATAAACAAACAA [CACACA_site2721] | 9.62 ± 0.36
62 | TAATATAATAATAATTGTACTTTTCATAGTGTAATT [XGTACX_site8152] | 8.45 ± 0.57
63 | ATTATAATTATCAAGGTGCGTGTATTATAATAAATA [GTGCAC_site9917] | 8.69 ± 0.42
64 | GGATATTATATAAAGTGTACAAGACAAATATATACA [XGTACX_site8173] | 9.07 ± 0.54
65 | AATAAATTAAATAAAAATGTTTAACATAAAATATGA [GTGCAC_negctrl_site373] | 8.52 ± 0.45
66 | ATATATCAAGGGAGTGAATGTTATGCATATGAATAT [TGCATGCA_negctrl_site573] | 8.88 ± 0.49
67 | AAATTAACAAACTGTAGTACTAACAATATATACAAA [XGTACX_site1772] | 8.92 ± 0.52
68 | AAACAAAACAACTAAGTGCATAAAAATAAAATAAAT | 9.1 ± 0.52
69 | ATTTTATTTTTTTGAAGTACGAATTCCGAGAAGAAA [XGTACX_site43] | 8.22 ± 0.35

Row | Sequence | gcPBM binding intensity (ln)
70 | TATTCAAAAATATAAACAATGAAACAGTATAATATG [CACACA_negctrl_site1482] | 8.73 ± 0.5
71 | TATAGTTCTTCTATTTGTACATATATTATTATTTAA [XGTACX_site895] | 8.74 ± 0.42
72 | AATTTTCCATAGATTGTGCACAAATTTTTATTTTGT | 8.87 ± 0.44
73 | TTATAATCAATGAATACACACATATATTTAATTAAT [CACACA_site3613] | 8.84 ± 0.35
74 | AAGAAAAAGACTTCATGAAAAAGAATTTTTTTAATT [TGCATGCA_negctrl_site473] | 8.38 ± 0.49
75 | TAATATTATTTTTCAGTGCAATATAACCTTAGAATT [GTGCAC_site9417] | 8.34 ± 0.4
76 | ATATATTTTTTTTTTATTTTATTATTATAATTTATC [XGTACX_negctrl_site16] | 8.64 ± 0.58
77 | AACTGTAAAAAATATAAACACACATAGAAATATATA [CACACA_site8002] | 9.08 ± 0.49
78 | TATGTGTGAAAAAAATGTACATATATATAAATTATA [XGTACX_site7202] | 8.95 ± 0.44
79 | ATATATATATATAATAGTACATATATTTTGAAAGAT [XGTACX_site5800] | 8.89 ± 0.37
80 | TATTCTTACAAAAGTAGTACAATCATTCATATTTTT [XGTACX_site631] | 8.62 ± 0.45
81 | AAAAATGAAAAATGAAAAATGAAAAATGAAAAATAA [CACACA_negctrl_site695] | 8.73 ± 0.49
82 | TATATATATATAATTGTGCACATAATTTTAAACCAA | 8.78 ± 0.3
83 | TAGTTTCAAGTAGGACGTACATATAAAAGGATTTTT [XGTACX_site7136] | 8.77 ± 0.41
84 | GTTCTGTAAATACGTGCACACACAAATCACAAATGT [CACACA_site7999] | 9.42 ± 0.24
85 | AATTAAAAAAGTAATTAACACACAATAATGTAATGC [CACACA_site9388] | 8.98 ± 0.49
86 | AAAGAAATGAAATATACACACATACATATATACATA [CACACA_site9335] | 9.24 ± 0.32
87 | GATATATTTTATATATGTACATACAATGGTAAATAT [XGTACX_site2759] | 8.84 ± 0.38
88 | TTTTTTTTCTTTTTTTGTACATAATAATATATAAAT [XGTACX_site6778] | 8.37 ± 0.46
89 | TACATATATATTTGTTCACACACACCCAAAAAAAAA [CACACA_site8788] | 9.28 ± 0.46
